# Laboratory results: PubChem BioAssay AID1345083 (National Center for Advancing Translational Sciences (NCATS), 2018)
# Values joined by “and” are separate entries in the source; they are usually repeats but may differ in a detail not shown here. Equal values may be shown once. Among all 94,000 compounds or so, about 6,200 (6.6%) were called active. The inconclusive results got no clear call from the source; some entries with a clear call stand among them for comparison. Calls come from the whole dose curve; as a rule, active = well fitted inhibition curve with a large enough effect; inconclusive = small, poorly fitted or top-dose-only effect; inactive = flat fitted curve, though single readings scatter. Where the call is inconclusive, the potency comes from a doubtful curve fit.
# Assay: Cytotoxic Profiling in HEK 293 Cell Line of Diverse Libraries Using Quantitative High-Throughput Screening; note: nearly all actives have a fitted effect of over 60% in size
# Conditions: HEK 293 viability, ATP luminescence (CellTiter-Glo), 48-72 h; series mostly up to 115 µM
# How it was run: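 Cytotoxicity was scored by loss of ATP-coupled luminescence (CellTiter-Glo) in HEK 293 cells. Compound treatment ran 48 or 72 hr at 37 degree Celsius, 5% CO2, 95% humidity.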
# Potency is the fitted concentration of half-maximal effect; tags give direction and shape of the fitted curve.
row,Structure (SMILES),Potency
1,CC1CCC2(CC1)OCC(C(=O)NC(C)c1ccccc1)N2C(=O)c1cccc(Cl)c1 (stereo unspecified),"inconclusive: 56.2 µM [inhibitor, partial curve, poor fit]"
2,CCC(C)NC(=O)N1CC(n2cc(C(=O)N(C)CCOC)nn2)C1 (stereo unspecified),inactive
3,CN(CC1(C)CCOCC1)C(=O)c1ccc(F)c(Cl)c1,inactive
4,COCC(=O)N1CCn2c(nn(-c3ccncc3)c2=O)C1,inactive
5,COc1nccc(N2CCC(CC(=O)NCc3ccccc3F)CC2)n1,"inconclusive: 56.2 µM [inhibitor, partial curve, poor fit]"
6,COC(=O)C1=C(C)N=C2SC=C(CC(=O)N(C)Cc3ccco3)N2C1c1cccc(Cl)c1 (stereo unspecified),active: 25.1 µM
7,CCc1nnc(N2CCCC3(CCC(=O)N(Cc4ccccc4)C3)C2)s1 (stereo unspecified),inactive
8,O=[S+]([O-])(c1ccccc1)N1CCn2c(nnc2-c2ccc(Cl)cc2)C1,"inconclusive: 56.2 µM [inhibitor, partial curve, poor fit]"
9,COc1ccc(NC(=O)N2CCCC(Cc3nncn3C)C2)cc1 (stereo unspecified),inactive
10,CCNC(=O)C1C(c2cccc(NC(=O)c3ccc(C)cc3)c2)OC(=O)N1Cc1ccc(F)cc1 (stereo unspecified),"inconclusive: 50.1 µM [inhibitor, partial curve, poor fit]"
11,COC(=O)[C@@H]1Cc2c([nH]c3ccccc23)[C@H]2C[C@@H](NCCN3CCOCC3)C[C@@H](c3ccc(OC(F)(F)F)cc3)N21,active: 25.1 µM
12,CCOc1ccc(CC(=O)NC2CCN(c3cc(-c4cccs4)[nH]n3)C2)cc1 (stereo unspecified),active: 44.7 µM
13,c1ccc([C@@H]2CN(Cc3ccncc3)C[C@H]2COc2cccnc2)nc1,"inconclusive: 89.1 µM [inhibitor, single point]"
14,Cc1ccc(CNC(=O)c2cc3cn(C(C)C)cc3s2)cc1,"inconclusive: 79.4 µM [inhibitor, partial curve, poor fit]"
15,O=C1NCN(Cc2ccc(Cl)cc2)C12CCN(Cc1ccncc1)CC2,"inconclusive: 89.1 µM [inhibitor, single point]"
16,Cc1ccc(C(=O)Nc2ccc3c(N4CCCCC4)ncnc3c2)cc1F,"inconclusive: 7.94 µM [inhibitor, full curve, poor fit]"
17,COc1ccccc1C(=O)N1CCN(C(=O)c2nnn3c2COC(c2ccccc2)C3)CC1 (stereo unspecified),"inconclusive: 100 µM [inhibitor, single point]"
18,COc1cccc(CN2CCOC3(CCN([S+](=O)([O-])c4ccccc4)CC3)C2=O)c1,"inconclusive: 100 µM [inhibitor, partial curve, poor fit]"
19,CN(Cc1ccc(-c2ccccc2)cc1)C(=O)Nc1ccc(Cl)cc1,"inconclusive: 50.1 µM [inhibitor, partial curve, poor fit]"
20,CCc1nc(-c2c3n(c(=O)n(CC(=O)Nc4ccc(C)c(F)c4)c2=O)CCCCC3)no1,inactive
21,CCOc1ccc(C(=O)N2CCC(Cc3nc(C(C)C)no3)CC2)cc1,"inconclusive: 50.1 µM [inhibitor, partial curve, poor fit]"

row,Structure (SMILES),Potency
1,CN(C)CC1(O)CCC2(CCN(C(=O)CCc3ccccc3)CC2)CC1,inactive
2,O=C(N[C@@H]1CCOC[C@H]1OCCO)c1cc(-c2ccsc2)n[nH]1,inactive
3,O=C(c1nc(-c2ccccc2)c2ccccn12)N1CCCC1,"inconclusive: 126 µM [inhibitor, single point]"
4,CO[C@@H]1C[C@@H]2CC(C)(C)OC[C@@]2(O)[C@H]1N1CCN(c2ccc([N+](=O)[O-])cc2)CC1,"inconclusive: 39.8 µM [inhibitor, single point]"
5,Cc1noc(-c2ccn3c(CNC(=O)c4cccc(N(C)C)c4)nnc3c2)n1,"inconclusive: 100 µM [inhibitor, single point]"
6,O=c1[nH]c(C2CCCN(Cc3ccc(-c4ccsc4)cc3)C2)nc2ccc(F)cc12 (stereo unspecified),"inconclusive: 39.8 µM [inhibitor, partial curve] and inconclusive: 44.7 µM [inhibitor, partial curve, poor fit]"
7,COc1ccc(CC(=O)N2CCC(Oc3ccc(C(=O)N(C)C)cn3)CC2)cc1Cl,"inconclusive: 89.1 µM [inhibitor, single point]"
8,Cc1ccc(C(=O)Nc2ccc3c(N4CCOCC4)ncnc3c2)cc1,"inconclusive: 20 µM [inhibitor, partial curve, poor fit]"
9,Cc1ccc(CNC(=O)C2CCN(C(=O)c3ncn4c3COC(c3ccc(Cl)cc3)C4)CC2)cc1 (stereo unspecified),inactive
10,Cc1ccc(CN2CCOC[C@H](Oc3ccc(C(F)(F)F)cc3)C2)cc1,active: 100 µM
11,COc1ccc(CN2CCC3(Cc4ccccc4NC3=O)C2)cc1 (stereo unspecified),"inconclusive: 100 µM [inhibitor, partial curve]"
12,O=C(O)Cn1ccc2cc(OCCc3cccc(-c4ccc(Cl)cc4)c3)cnc21,"inconclusive: 89.1 µM [inhibitor, partial curve, poor fit]"
13,c1ccc(-c2nc3ncccc3[nH]2)cc1,"inactive and inconclusive: 158 µM [inhibitor, single point]"
14,C[C@H]1CCCN1C(=O)c1nnc(COc2ccc(Cl)cc2)n1-c1ccccc1,active: 79.4 µM
15,O=C(Cc1cccc(Cl)c1)NC1CCN(Cc2cccc(-c3cccs3)c2)CC1,active: 22.4 µM
16,O=C(CN1CCOC1=O)N1CCC2(CCC(=O)N(CCCn3ccnc3)C2)CC1,inactive
17,COc1ccccc1CNC(=O)c1cc(-c2ccccc2F)nc2c1cnn2C,"inconclusive: 8.91 µM [inhibitor, full curve, poor fit]"
18,CCOc1ccccc1CNC(=O)c1cc2c(N3CCCC3)nc(C)cn2n1,"inconclusive: 79.4 µM [inhibitor, partial curve, poor fit]"
19,COCCNC(=O)[C@@H]1C[C@H](Oc2ccccc2)CN1C(=O)c1nn(C)c2ccccc12,"inconclusive: 100 µM [inhibitor, single point]"
20,Cc1ccccc1N1Cc2c(NCc3cccs3)ncnc2N(C)CC1=O,"inconclusive: 63.1 µM [inhibitor, partial curve, poor fit]"
